Measured values reported in the supplement of paper PMC7826260.
Some of the results follow. One pool of 16,384 single-stranded DNAs met each Rep nickase domain in vitro at 3 µM enzyme and 37 °C for 1 h; the strands have 90 letters, of which the middle is given. Numbers give uncut DNA relative to the enzyme-free pool, as log2; more negative means more cut, near 0 not cut, and no call is made. Because reads are shares of a total, they shift together; values above 0 arise when much of the pool is cut.

Columns and labels:
Experiment in all cases: uncleaved DNA left, log2 of reads against the no-enzyme library (log2 ratio); higher = less cleavage (more negative = more Rep cleavage of the k-mer); sequences stand for … in CTCGTCCG…ACCGGAGA
[1] = system: T1, Rep nickase domain of Muscovy duck circovirus
T1 sequence (protein, residues 1-111, tag omitted): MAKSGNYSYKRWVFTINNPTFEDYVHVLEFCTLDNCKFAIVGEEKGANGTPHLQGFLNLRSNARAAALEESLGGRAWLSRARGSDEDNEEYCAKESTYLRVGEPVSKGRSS
Procedure: (§1)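 A pool of 90-nt single-stranded DNAs with seven random bases just before the constant AC of the nick site (name = the seven bases) was cut by 3 µM recombinant His6-SUMO-tagged Rep nickase domain (300 nM DNA, 50 mM HEPES pH 8.0, 50 mM NaCl, 1 mM MnCl2, 1 h, 37 °C, three replicates). Uncut DNA was amplified and sequenced.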

[2] = system: T2, Rep nickase domain of banana bunchy top virus
T2 sequence (protein, residues 1-94, tag omitted): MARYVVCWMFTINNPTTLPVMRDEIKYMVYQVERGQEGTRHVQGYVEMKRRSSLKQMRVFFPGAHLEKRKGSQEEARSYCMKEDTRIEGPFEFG
Procedure: as §1

[3] = system: T3, Rep nickase domain of cabbage leaf curl virus
T3 sequence (protein, residues 1-116, tag omitted): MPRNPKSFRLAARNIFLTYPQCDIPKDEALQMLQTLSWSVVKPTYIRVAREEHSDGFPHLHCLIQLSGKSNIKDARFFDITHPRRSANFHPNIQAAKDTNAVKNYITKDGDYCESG
Procedure: as §1

[4] = system: T4, Rep nickase domain of chickpea chlorotic dwarf virus
T4 sequence (protein, residues 1-124, tag omitted): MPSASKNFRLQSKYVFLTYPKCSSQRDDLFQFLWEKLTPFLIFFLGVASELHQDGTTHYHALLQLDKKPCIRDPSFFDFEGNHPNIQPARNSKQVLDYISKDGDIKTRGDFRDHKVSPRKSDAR
Procedure: as §1

[5] = system: T5, Rep nickase domain of faba bean necrotic yellows virus
T5 sequence (protein, residues 1-98, tag omitted): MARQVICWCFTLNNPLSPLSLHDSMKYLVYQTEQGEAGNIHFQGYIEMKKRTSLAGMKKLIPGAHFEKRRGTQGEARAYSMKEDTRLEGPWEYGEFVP
Procedure: as §1

[6] = system: T6, Rep nickase domain of maize striate mosaic virus
T6 sequence (protein, residues 1-117, tag omitted): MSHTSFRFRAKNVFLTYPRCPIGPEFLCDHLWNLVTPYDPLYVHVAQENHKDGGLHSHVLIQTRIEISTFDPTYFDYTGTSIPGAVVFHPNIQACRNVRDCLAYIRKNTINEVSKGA
Procedure: as §1

[7] = system: T7, Rep nickase domain of porcine circovirus 2
T7 sequence (protein, residues 2-116, tag omitted): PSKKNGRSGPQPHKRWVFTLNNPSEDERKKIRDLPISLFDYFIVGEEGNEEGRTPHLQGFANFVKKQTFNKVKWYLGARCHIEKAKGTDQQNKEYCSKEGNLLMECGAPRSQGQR
Procedure: as §1

[8] = system: T8, Rep nickase domain of tomato golden mosaic virus
T8 sequence (protein, residues 1-124, tag omitted): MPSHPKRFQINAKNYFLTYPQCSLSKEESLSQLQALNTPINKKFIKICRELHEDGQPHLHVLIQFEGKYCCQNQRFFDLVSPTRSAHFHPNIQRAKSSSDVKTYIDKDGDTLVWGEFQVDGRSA
Procedure: as §1

[9] = system: T9, Rep nickase domain of tomato yellow leaf curl virus
T9 sequence (protein, residues 1-136, tag omitted): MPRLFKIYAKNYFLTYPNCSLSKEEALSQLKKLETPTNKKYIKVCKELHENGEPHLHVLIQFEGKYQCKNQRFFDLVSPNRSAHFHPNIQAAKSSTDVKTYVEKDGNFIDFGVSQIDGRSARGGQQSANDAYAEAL
Procedure: as §1

[10] = system: T10, Rep nickase domain of wheat dwarf virus
T10 sequence (protein, residues 1-137, tag omitted): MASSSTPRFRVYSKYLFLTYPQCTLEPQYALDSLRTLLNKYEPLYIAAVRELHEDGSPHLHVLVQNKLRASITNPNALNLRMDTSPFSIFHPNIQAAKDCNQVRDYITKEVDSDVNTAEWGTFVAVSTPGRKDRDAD
Procedure: as §1

Sequence	uncleaved DNA left (log2) [1]	uncleaved DNA left (log2) [2]	uncleaved DNA left (log2) [3]	uncleaved DNA left (log2) [4]	uncleaved DNA left (log2) [5]	uncleaved DNA left (log2) [6]	uncleaved DNA left (log2) [7]	uncleaved DNA left (log2) [8]	uncleaved DNA left (log2) [9]	uncleaved DNA left (log2) [10]
AGCGAGG	0.084	0.127	0.00218	0.783	0.0236	1.68	0.0966	0.253	0.0881	0.17
TCCGAGC	-0.152	-0.104	0.452	0.917	0.0121	0.583	-0.0364	-0.115	-0.0533	0.0664
ACAATGG	0.0433	0.0385	-0.686	-0.57	0.00695	-1.13	0.184	0.0428	0.0285	-0.0506
CCTCAGC	0.097	0.138	-0.106	-0.423	-0.0459	-0.61	0.266	0.0587	0.177	0.0954
TCTAATC	0.00592	-0.00855	0.0698	-0.0914	0.0574	-0.436	0.0607	0.105	0.0773	0.0689
CCCTAAA	0.0949	0.0695	0.174	-0.2	0.0968	-0.448	0.111	0.168	0.154	0.141
ATGCTAG	-0.0527	-0.0148	-0.643	-0.52	-0.026	-1.13	0.204	0.00344	0.0165	-0.0764
GCGCTGC	0.144	-0.112	-0.0526	0.58	0.0853	1.08	-0.0196	-0.054	-0.113	-0.00266
GCTTATA	0.0778	0.0634	0.0549	-0.0455	0.00943	0.476	-0.0247	-0.0132	0.00721	0.0767
ATGACCG	0.01	-0.0344	-0.145	0.0494	-0.0497	-0.385	0.123	-0.0357	-0.144	-0.00991
CAACACT	-0.0765	-0.112	-2	-3.08	-0.0627	-1.17	-0.421	-0.23	-0.0171	-0.509
TACAAAA	-0.0342	0.148	-0.0136	-0.945	0.0469	-0.574	-0.0457	-0.118	-0.0329	-0.0375
ACGGAGA	0.236	0.129	-0.0106	0.362	0.213	-0.491	0.149	0.158	0.0889	-0.0128
CCTAGTT	0.127	-0.0638	0.014	-1.99	-0.149	-0.473	-0.229	-0.113	0.0735	-0.0937
CAATGTA	-0.854	-0.0636	-2.09	-2.4	-0.0165	-1.17	-2.65	-0.442	0.0215	-0.492
